Data: article PMC4336329 (PLoS ONE, 2015)
About 2,200 (0.71%) of roughly 310,000 compounds showed an effect of 50% or more. The effect is printed as a negative number. The list shows a part of the results.

The compounds below were run against human ether-à-go-go-related gene (hERG) potassium channel (human, UniProt Q12809) (assay: primary screen, population patch clamp on CHO cells stably expressing hERG).
human ether-à-go-go-related gene (hERG) potassium channel, sequence (Q12809 whole entry, looked up): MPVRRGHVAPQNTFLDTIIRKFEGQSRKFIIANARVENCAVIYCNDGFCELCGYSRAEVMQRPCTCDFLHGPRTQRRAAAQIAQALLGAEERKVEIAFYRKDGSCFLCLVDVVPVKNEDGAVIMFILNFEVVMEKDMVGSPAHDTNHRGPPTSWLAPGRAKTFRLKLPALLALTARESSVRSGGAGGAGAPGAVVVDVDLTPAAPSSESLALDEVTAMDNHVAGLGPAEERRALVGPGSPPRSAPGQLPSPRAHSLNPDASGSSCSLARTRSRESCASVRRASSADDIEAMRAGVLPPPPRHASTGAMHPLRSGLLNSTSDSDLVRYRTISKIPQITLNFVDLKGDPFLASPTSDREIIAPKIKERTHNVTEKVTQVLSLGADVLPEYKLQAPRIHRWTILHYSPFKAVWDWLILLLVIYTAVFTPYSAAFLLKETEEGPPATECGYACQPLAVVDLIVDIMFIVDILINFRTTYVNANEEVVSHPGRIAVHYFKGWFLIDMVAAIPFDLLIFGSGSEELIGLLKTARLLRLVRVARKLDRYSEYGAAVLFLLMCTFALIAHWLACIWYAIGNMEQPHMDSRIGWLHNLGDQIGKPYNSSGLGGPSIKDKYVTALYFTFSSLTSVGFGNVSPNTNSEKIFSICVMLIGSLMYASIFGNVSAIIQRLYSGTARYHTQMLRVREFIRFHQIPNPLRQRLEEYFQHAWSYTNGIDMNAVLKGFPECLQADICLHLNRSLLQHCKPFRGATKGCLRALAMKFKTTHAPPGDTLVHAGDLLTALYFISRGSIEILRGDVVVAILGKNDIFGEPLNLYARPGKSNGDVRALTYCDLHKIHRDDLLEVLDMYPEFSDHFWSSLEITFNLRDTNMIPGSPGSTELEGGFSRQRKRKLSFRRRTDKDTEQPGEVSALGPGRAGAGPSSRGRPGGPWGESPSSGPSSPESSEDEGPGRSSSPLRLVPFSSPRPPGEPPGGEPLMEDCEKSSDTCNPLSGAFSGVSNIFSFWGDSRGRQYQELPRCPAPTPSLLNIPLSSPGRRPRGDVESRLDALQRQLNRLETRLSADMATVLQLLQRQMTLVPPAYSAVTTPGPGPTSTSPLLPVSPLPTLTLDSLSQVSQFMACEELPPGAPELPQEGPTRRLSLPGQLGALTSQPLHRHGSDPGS

Row | SMILES | hERG current change (%, negative = inhibition) at 1uM [%]
1 | O=C(Nc1ncc2c(n1)CC(c1ccco1)CC2=O)c1ccc(Cl)cc1 (stereo not drawn) | 0.855
2 | CCOC(=O)c1ccccc1NC(=O)c1n[nH]c(=O)c2ccccc12 | 3.01
3 | CN(CC(=O)Nc1cccc(F)c1)CC(=O)Nc1ccc(Cl)cc1[N+](=O)[O-] | 3.8
4 | CN(CC(=O)Nc1ccc(Cl)cc1)CC(=O)Nc1cc(Cl)ccc1C#N | 3.23
5 | CCOC(=O)c1c(NC(=O)COc2cccc3c2CCN(CC)C3=O)sc2c1CCC2 | 10.4
6 | CC(OC(=O)c1ccc(NS(=O)(=O)c2ccc3[nH]c(=O)[nH]c3c2)cc1)C(=O)Nc1cccc(Cl)c1Cl (stereo not drawn) | 4.72
7 | O=C(CSc1ccc(Cl)cc1)NCc1ccncc1 | -2.62
8 | CC1(O)CC(c2ccc(Cl)cc2)=NN1C(=O)c1ccc([N+](=O)[O-])cc1 (stereo not drawn) | 17.6
9 | COc1ccc(CNC(=O)C(c2ccc(C)o2)N(C(=O)c2csnn2)c2ccc(C(C)C)cc2)cc1 (stereo not drawn) | -0.505
10 | CN1CCN(c2ccc([N+](=O)[O-])c(Sc3nncn3C)c2)CC1 | -4.09
11 | Cc1nc2sccc2c(=O)n1-c1ccccc1Cl | 16.2
12 | Cc1n[nH]c(=O)nc1NCc1ccccc1Cl | 6.98
13 | CCCNC(=O)CN1C(=O)c2ccccc2Sc2ncccc21 | 5.72
14 | COc1ccc(NS(=O)(=O)c2ccc(S(=O)(=O)N3CCOCC3)cc2)cc1 | -6.19
15 | CN(CC(=O)OCC(=O)NC(=O)c1cccn1C)S(=O)(=O)c1ccc(Cl)cc1 | 13.4
16 | CCOc1ccc(C(=O)O/N=C(\N)c2ccccn2)cc1 | 17.6
17 | CC(CC(=O)OCC(=O)Nc1ccc2[nH]c(=O)[nH]c2c1)c1ccccc1 (stereo not drawn) | 5.66
18 | Cc1ccc2nc(-c3cccc(S(=O)(=O)N4CC(C)OC(C)C4)c3)cn2c1 (stereo not drawn) | 8.62
19 | COCCNC(=O)CCSc1nc(-c2ccc(OC)cc2)cc(C(F)(F)F)n1 | 12
20 | Cc1cc(C)cc(NS(=O)(=O)Cc2ccccc2)c1 | 11.9
21 | Cl.O=C(c1ccco1)N1CCN(CCOc2ccc(F)cc2)CC1 | -0.809
22 | Cc1ccc(C(=O)N/N=C/c2ccc([N+](=O)[O-])s2)cc1 | 9.57

Row | SMILES | hERG current change (%, negative = inhibition) at 1uM [%]
23 | CC(=O)c1c(C)[nH]c(C(=O)CSc2nnc(-c3ccc(Cl)cc3)n2CC2CCCO2)c1C (stereo not drawn) | 0.922
24 | O=S(=O)(c1ccc(Cl)cc1)c1ccccn1 | 8.68
25 | Cc1cc(C)c2nc(N(CCN(C)C)C(=O)c3ccc(S(=O)(=O)N(C)CC4CCCO4)cc3)sc2c1.Cl (stereo not drawn) | -1.93
26 | Cc1ccc(S(=O)(=O)/N=C(\N)Nc2nc(C)c3ccc(C)cc3n2)cc1 | -2.7
27 | Cc1ccc(N=C2S/C(=C/c3cccc(OCC(=O)O)c3)C(=O)N2C)cc1C | 8.67
28 | CCN1CCN(C(=O)Cc2ccc(C)cc2)CC1 | 13.9
29 | CC(C)CN(C(=O)CCC(=O)OC(C)C(=O)Nc1cccc(C#N)c1)c1c(N)n(CC(C)C)c(=O)[nH]c1=O (stereo not drawn) | 13.1
30 | CCCc1[nH]n(-c2nc3ccccc3s2)c(=O)c1C=NCC1CCCO1 (stereo not drawn) | -7.95
31 | C(=N\NC1=Nc2cccc3cccc1c23)/c1cccnc1 | 7.24
32 | Cc1ccc(CNC(=O)C2CCC(=O)N2C2CCCCC2)cc1 (stereo not drawn) | 10.2
33 | CN(CCCN1CCOCC1)Cc1cn(C)nc1-c1ccccc1F | 3.45
34 | CC(C)c1cc(C(=O)N2CCCC(N3CCN(c4ccccc4F)CC3)C2)nc(N)n1 (stereo not drawn) | 10.1
35 | CN(CC(=O)NCC(=O)Nc1ccc(F)cc1)C1CCS(=O)(=O)C1 (stereo not drawn) | 10.7
36 | CCC(=NCC1CCCO1)c1c(O)n(-c2ccc(Cl)cc2)c(=O)[nH]c1=O (stereo not drawn) | -3.6
37 | Cc1cc(C)c2cc(CN(CCO)C(=O)NC3CCCCC3)c(=O)[nH]c2c1 | 6.77
38 | CCn1c(SCC(=O)Nc2c(C)n(C)n(-c3ccccc3)c2=O)nnc1-c1cccc(C)c1 | 25.4
39 | O=C(CNC(=O)c1[nH]cnc1C(=O)NC(c1ccccc1)c1ccccc1)OCc1ccccc1 | 9.19
40 | Cc1ccc(NC(=O)c2cc(C(=O)Nc3ccc(C)cc3)n(C)n2)cc1 | 12.5
41 | O=C(N/N=C/c1ccc([N+](=O)[O-])o1)C1CCCC1 | 13.1
42 | Cn1nc(C(C)(C)C)cc1C(=O)NNC(=O)c1ccc(C(F)(F)F)cc1 | 15.3
43 | CCCCNC(=O)CSc1nc2ccc(N3CCOCC3)cc2c(=O)n1CCc1ccccc1 | -5.29
44 | CC(=O)C1=C(C)NC(=O)NC1c1cc(Br)ccc1OCC(N)=O (stereo not drawn) | 1.31

Row | SMILES | hERG current change (%, negative = inhibition) at 1uM [%]
45 | CN(c1ccccc1)S(=O)(=O)c1cccc2ccccc12 | 17.8
46 | CC1=C(C(=O)OC(C)C)C(c2c(O)ccc3ccccc23)NC(=O)N1 (stereo not drawn) | 15.5
47 | C=CCN(c1ccccc1)S(=O)(=O)c1cccc(C(=O)N2CC(C)CC(C)C2)c1 (stereo not drawn) | 8.25
48 | COc1cccc(C(=O)NC(C)C(c2cccs2)N2CCOCC2)c1 (stereo not drawn) | 0.787
49 | O=C(CC(=O)Nc1cccc(Cl)c1Cl)Nc1cccc(Cl)c1Cl | 15.1
50 | CCCc1nnc(SCC(=O)N2CCOCC2)n1CCCOC | 13.8
51 | CCOC(=O)c1c(NC(=O)COC(=O)c2ccccc2NC)sc(C(=O)N(C)C)c1C | 6.12
52 | CCc1c(C)nc2cc(-c3ccc(Cl)cc3)[nH]n2c1=O | 7.07
53 | Cc1ccc2cc(NC(=O)Cc3ccccc3)ccc2n1 | 23.7
54 | Cc1ccc(C(C)NC(=S)NCc2ccc(F)cc2)c(C)c1 (stereo not drawn) | 11.4
55 | CCOC(=O)C1CCN(C(=O)COC(=O)CN(C)S(=O)(=O)c2ccc(NC(C)=O)cc2)CC1 | 13
56 | COc1ccc(NC(=O)COC(=O)c2ncc(Cl)c(Cl)c2Cl)c(OC)c1 | 12.3
57 | CCc1ccc(-c2cc(C)no2)cc1S(=O)(=O)Nc1ccc(Cl)cn1 | 3.66
58 | CC(C)N(C(=O)CSc1nnc(NC(=O)c2ccco2)s1)C(C)C | 11.8
59 | O=C(NCc1ccco1)c1ccc2c(c1)C(=O)c1ccccc1-2 | 4.66
60 | COc1ccc(NC(=O)c2c(C)noc2-c2snnc2C)cc1 | 16.2
61 | CSc1ccccc1OCc1cc(C(=O)NC2CCOC2)no1 (stereo not drawn) | 12.9
62 | C/C(CCc1ccccc1)=N\NC(=O)c1ccccc1 | -7.58
63 | Cc1ccc(OCCNC(=O)CCNS(=O)(=O)c2ccc(C)cc2)cc1 | 6.65
64 | Cn1c2c(c(=O)n(C)c1=O)C(c1cc3c(cc1Br)OCO3)CC(=O)N2 (stereo not drawn) | 7.16
65 | Cc1ccc(OCC(=O)Nc2ccc(N3CCN(C(=O)c4ccc(C)cc4)CC3)cc2)cc1 | 8.7
66 | Cc1ccc(C)c(N(CC(=O)NCCC2=CCCCC2)S(C)(=O)=O)c1 | -2.02

Row | SMILES | hERG current change (%, negative = inhibition) at 1uM [%]
67 | CC(=O)C1=C(O)C(=O)N(c2ccc(O)cc2)C1c1ccccc1Cl (stereo not drawn) | 10.6
68 | COc1nc(Oc2ccc(=O)n(C)n2)nc(N(C)C)n1 | 4.3
69 | O=C(NC(=S)NNC(=O)c1ccccc1O)c1ccc(F)cc1 | 13.9
70 | COc1cccc(-c2cc(C(=O)N3CCN(C(=O)c4ccco4)CC3)on2)c1 | 5.77
71 | Cc1ccnc(NC(=O)CCC2COc3ccccc3O2)c1 (stereo not drawn) | 1.13
72 | CN(C)c1cccc2cccc(N(C)C)c12 | 11.2
73 | CC(=Nc1ccccc1C(F)(F)F)c1ccncc1 | 19.8
74 | CCCc1nc2ccc(NC(=O)c3ccco3)cc2c(=O)n1Cc1ccccc1Cl | 7.79
75 | Cc1ccc(OCC(=O)N/N=C/c2cccnc2)cc1 | -4.57
76 | CCN(CC(=O)Nc1ccc2c(c1)OCCO2)C(=O)c1ccc(Cl)cc1Cl | 8.99
77 | Cc1nn(C(=O)N(C)C)c(C)c1CN1C(=O)c2ccccc2C1=O | 16.4
78 | CC1CCCN(C(=O)CSc2nc3ncccc3[nH]2)C1 (stereo not drawn) | 4.71
79 | COc1ccc(N2CCN(C(CNC(C)=O)c3ccc4c(c3)OCO4)CC2)cc1 (stereo not drawn) | 15.9
80 | CCn1nc(NC(=O)C2CCCO2)c2cc3cc(C)ccc3nc21 (stereo not drawn) | 7.19
81 | CCCCNC(=O)C1C2C=CC3(CN(Cc4ccccc4Cl)C(=O)C13)O2 (stereo not drawn) | 14
82 | COc1ccc([N+](=O)[O-])cc1NC(=O)COC(=O)c1ccccc1C(=O)c1ccccc1 | 0.26
83 | CN(C(=O)c1ccc2c(=O)n3c(nc2c1)CCCCC3)c1cccc(Cl)c1 | 0.0681
84 | Cc1ccc(-n2c(SCC(=O)N3CC(=O)Nc4ccccc43)nc3ccccc3c2=O)cc1 | 3.28
85 | COC(C(=O)Nc1ccnn1C1CCN(Cc2ccc(C)o2)CC1)c1ccccc1 (stereo not drawn) | 8.71
86 | Cc1c(C(=O)O)oc2c1C(O)CCC2 (stereo not drawn) | -1.66
87 | COc1ccc(CCC(=O)N(c2nnc(-c3cccnc3)s2)C(C)C)cc1.Cl | -3.31
